Assay results: the supplement of paper PMC11417369
± gives the standard deviation of the averaged measurements. The list shows a part of the results.

system: PfAP2-EXP AP2 domain (GST-tagged); test: gcPBM binding intensity (ln(normalized median fluorescence intensity)); higher = stronger DNA binding
In short: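 DNA-binding domains from P. falciparum, fused to GST and produced in E. coli, were put on an Agilent 4 × 180k double-stranded probe array for 1 h in 1× PBS holding 1% milk, 0.2 mg/ml BSA, 0.5% salmon testes DNA and 0.03% Triton X-100. Probes were primer-extended, 36 bp long and drawn from intergenic genomic regions, with negative controls included. After Alexa488 anti-GST antibody detection and a 488 nm scan, binding intensity was set as the highest Masliner-normalised natural-log median intensity across replicate spots of either probe orientation.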

| Sequence | gcPBM binding intensity (ln) |
| --- | --- |
| GTATGTATATTTATCTGTACATATTTATGTATTCTT [XGTACX_site2112] | 8.73 ± 0.28 |
| TATATACATATATACACACACATATATTATATATAT [CACACA_site275] | 8.69 ± 0.27 |
| TTTTTTTTTATAGCTAAACACACATAAGAATATATG [CACACA_site8282] | 8.28 ± 0.41 |
| TATAAATATAAAAGGAGTACAAATATATATATATAT [XGTACX_site1386] | 10.1 ± 0.22 |
| AGTTATAATAAAAAATGTACGTATTATCATTAAGAA [XGTACX_site4244] | 8.65 ± 0.26 |
| AAAAAAATTAAACATACACACGTTACTATTTTTATA [CACACA_site5009] | 8.19 ± 0.41 |
| TCCTAATATATGTATGCACACACAATATATACATAT [CACACA_site9111] | 8.63 ± 0.28 |
| GAAAATAAAAAATATGAACACACATATATAACAAAA [CACACA_site7975] | 8.86 ± 0.25 |
| AAAATTGATATATGCACACATATATATATTAAATAT [CACACA_site763] | 8.23 ± 0.43 |
| AAAAAAAAAAAAAACACACATACACATATATTTTTA [CACACA_site3893] | 8.43 ± 0.25 |
| TTTCATTCTGGTATCACACATTTATTTTCTAGTTTA [CACACA_site4286] | 8.88 ± 0.42 |
| AAAAAATAAAACATATATAATATATAATATATATAT [GTGCAC_negctrl_site447] | 9.06 ± 0.3 |
| AATGTGAAAACGTGTACACATTTTATTTAATTTATC [CACACA_site5966] | 8.49 ± 0.33 |
| ATAAATTATATTATTGAACACACGTTTGGTAATGTT [CACACA_site2662] | 8.43 ± 0.38 |
| AAAAAAATAATAAAAAGTACAAAATGTAGAAAATGT [XGTACX_site5018] | 9.03 ± 0.37 |
| TTTATTAATTTATAGTGTACATATTAATAATATATT [XGTACX_site7949] | 8.35 ± 0.2 |
| ATATATATTATATATTGTACATATTATATTCATTAT [XGTACX_site1766] | 8.57 ± 0.3 |
| TTAATTGAAACTTATTGTACTTTTTTTTTTTTTTTT [XGTACX_site8162] | 8.46 ± 0.11 |
| ATAAATAAAAATAGAACACACATATGTTTTTTTTTT [CACACA_site3556] | 8.2 ± 0.37 |

| Sequence | gcPBM binding intensity (ln) |
| --- | --- |
| CCTAGAAAAAAGAACTGTACATATATATATAAATAT [XGTACX_site1680] | 8.62 ± 0.57 |
| TGAAAAAATATAATTTGTACATATCAGGCAAAAATG [XGTACX_site1824] | 8.68 ± 0.38 |
| ATATGCAGAGACTGTTTGCACTTTTTTATTTTATGT [GTGCAC_site9695] | 8.77 ± 0.2 |
| AGGACAAGGGTTACATGTACATATATATATATATAT [XGTACX_site901] | 10.1 ± 0.32 |
| AAGTTATTTATATATACACACAAATATAAATAATAT [CACACA_site1228] | 8.51 ± 0.39 |
| CTCAAATTTATTAGTGGTACATAACCAAGGAAATAA [XGTACX_site225] | 8.6 ± 0.25 |
| ATTATAATTACTCTAGTGCATTATAAATATGAATAA | 8.62 ± 0.057 |
| TATTATGTTTATTAAACATGCATATATTTATTTATA [TGCATGCA_site187] | 8.62 ± 0.47 |
| ATATTTTATCATGTTTAATATTTATGTGGACATAAA [GTGCAC_negctrl_site275] | 8.53 ± 0.47 |
| AGTTGGATACGAAGATGTACAATAATAATAATTAAG [XGTACX_site3561] | 8.9 ± 0.35 |
| ACATTTTATATATGTAGTACATATTATAGATAATTT [XGTACX_site1976] | 8.37 ± 0.27 |
| TATTTTATTTTTTTATGTACACAAAAAAAAAAAAAA [XGTACX_site945] | 8.22 ± 0.35 |
| TCACTATAATAATTTACACACATTTTAAGAAAATGG [CACACA_site5867] | 8.21 ± 0.33 |
| ATCAAAAACATACCTACACACACAATATGTATATAT [CACACA_site9171] | 8.38 ± 0.39 |
| TAAAAAATATAAACTGCACACACACTAATAAAGAAA [CACACA_site8119] | 8.93 ± 0.47 |
| AATATATAAATGTTGTGTACTAAGCAATATATTTTA [XGTACX_site2483] | 8.57 ± 0.4 |
| ATTCGTCACATTTTTTGATATATATATATATATATA [CACACA_negctrl_site1785] | 10.4 ± 0.4 |
| GCTTATTAATATCATACACACATAGATATATTTATA [CACACA_site3104] | 8.56 ± 0.4 |
| ATATAGTTGTCATATTGTACACTTTAGGGTTGGTTA [XGTACX_site7339] | 8.62 ± 0.42 |

| Sequence | gcPBM binding intensity (ln) |
| --- | --- |
| CTATTATCGGTTCCTACACACAAATATATATGTCTA [CACACA_site3579] | 8.75 ± 0.72 |
| CAATGGTACATACATACACACACACTAATAAAAAAA [CACACA_site8450] | 8.59 ± 0.62 |
| TACAATCCATATTGTTGTACATTTATAAAATTTACA [XGTACX_site3053] | 8.28 ± 0.39 |
| GTATATATATAAGAAGAAATATATAAATAAAATATA [CACACA_negctrl_site503] | 8.46 ± 0.46 |
| CACAGACACGGACACACACACATATATAATATATAT [CACACA_site4495] | 8.84 ± 0.33 |
| AAGATATGAACATTTTGTACTTAAAAATTCAATATT [XGTACX_site7103] | 8.12 ± 0.46 |
| ATATATTTATTTATATGTACATATTATATATTATAG [XGTACX_site3371] | 8.55 ± 0.35 |
| GATTATACAAAATATACACACGTGTACAGAAATATT [CACACA_site8305] | 8.82 ± 0.39 |
| TTATATTAATTTTGTTGTACTATTTGTGCATTAAAT [XGTACX_site4790] | 8.96 ± 0.23 |
| TTTATATAAAATTATTGTACAGTTTTAATATTTTAA [XGTACX_site6807] | 8.26 ± 0.26 |
| AAGGATAATATATTAGAACACACATATATATGTAAA [CACACA_site7942] | 8.73 ± 0.52 |
| TACATACACAAATACACACACAAATACATACACAAA [CACACA_site704] | 8.71 ± 0.53 |
| TAAACAAATAAATATTGTACATTTTTTCCTTTTAAT [XGTACX_site5594] | 8.15 ± 0.42 |
| ATAAAATTATTATATACATGCAAAATTAATATATTG [TGCATGCA_site507] | 8.65 ± 0.44 |
| TATCTTCATATATGGTGTACAGATTTTTTTTTTTTT [XGTACX_site5545] | 8.56 ± 0.5 |
| TTTCTTTTTTTGGGCACACAAAATTTTCTCATTTTA [CACACA_site68] | 8.77 ± 0.36 |
| ATTATATAATAATGCATGCACCTTATTTTCATTTCA [GTGCAC_site9922] | 9.99 ± 0.19 |
| AAAATAAAAAAAATGAATTAGTTAAATGAAAAATAA [CACACA_negctrl_site1294] | 8.38 ± 0.46 |
| TGAATAAATAAACACACACACATATATATATCTGTA [CACACA_site4184] | 8.44 ± 0.36 |
